# PubChem BioAssay AID686978 (National Center for Advancing Translational Sciences (NCATS), 2013)
# About 64,000 (15%) of roughly 420,000 compounds were called active. The shares of active, inactive and inconclusive entries below differ from those in the screen. The call rests on the fitted dose curve; in most records, active means well fitted inhibition curve with a large enough effect; inconclusive means small, poorly fitted or top-dose-only effect; inactive means flat fitted curve, though single readings scatter. Potencies of inconclusive entries are left out as doubtful fits.
# Test: qHTS for Inhibitors of human tyrosyl-DNA phosphodiesterase 1 (TDP1): qHTS in cells in absence of CPT; further: nearly all actives have a fitted effect of over 55% in size
# Settings: DT40 Tdp1-/- hTDP1 cells, no CPT, ATP luminescence, 48 h; series mostly up to 46.2 µM
# How it was run: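 Luminescent ATP content (CellTiter-Glo) served as the growth readout. Knockout chicken DT40 cells expressing human TDP1 were exposed to compounds without camptothecin for a minimum 48 hr at 37 °C.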
# Potency means the concentration at half of the fitted maximal effect; tags describe the fitted curve by direction and shape.
row,Compound,Potency
1,CC(=O)c1ccc(S(=O)(=O)NC2CCCCCCC2)cc1,"inconclusive [inhibitor, partial curve]"
2,CC(C)(C)Cc1c(-c2ccccc2)nc2ccc(Br)cn12,active: 23.1 µM
3,CCC(CC)C(=O)Nc1cccc(C(=O)NCCc2ccccc2)c1,"inconclusive [inhibitor, single point]"
4,CCOc1ccc(N(CC(=O)N2CCOCC2)S(=O)(=O)c2ccc(Cl)cc2)cc1,inactive
5,COc1cccc(CNC(=O)COCc2cc(-c3ccc4c(c3)OCO4)on2)c1,"inconclusive [inhibitor, single point]"
6,COc1cccc(CNC(=O)c2ccc3c(c2)nc2n3CCCCC2)c1OC,"inconclusive [inhibitor, single point]"
7,CC(C)(C)C(=O)NN=C1CCC(c2ccccc2)CC1 (centres undefined),inactive
8,c1ccc2c(-c3nn4nnnc4c4ccccc34)cccc2c1,"inconclusive [inhibitor, partial curve]"
9,COc1cccc(C(N)c2nc(-c3csc4ccccc34)cs2)c1 (centres undefined),active: 2.91 µM
10,O=C(CN1CCN(c2ccccc2)CC1)Nc1ccccc1Cl,inactive
11,CCN1C(=O)[C@@H]2[C@@H](c3ccc(-c4ccc(F)cc4)cc3)N3CCC[C@@]3(C(=O)OC)[C@@H]2C1=O,"inconclusive [inhibitor, single point]"
12,CC(=O)CC1OC(=O)C(Br)=C1NCc1ccccc1 (centres undefined),active: 1.46 µM
13,CCOC(=O)c1c(NS(C)(=O)=O)sc2c1CCC(C)C2 (centres undefined),"inconclusive [inhibitor, single point]"
14,Cc1cccnc1Nc1nc(-c2ccc(O)cc2)cs1,inactive
15,CC1CCC2(CC1)N=C(c1ccccc1)C(=O)N2CC(=O)Nc1ccc(F)c(Cl)c1 (centres undefined),"inconclusive [inhibitor, single point]"
16,O=C(C1COc2ccccc2O1)N1CCN(c2ccccc2)CC1 (centres undefined),inactive
17,COc1ccc(-c2nc3n(c(=O)c2C#N)CCS3)c(OC)c1,inactive
18,Cc1cccc(-n2c(C)nc3cc(C(=O)NC4CCCCCC4)ccc32)c1,active: 23.1 µM
19,O=C(NC12CC3CC(CC(C3)C1)C2)C1CC(=O)N(c2ccc(Br)cc2)C1 (centres undefined),active: 23.1 µM
20,Cc1ccc(-c2noc(CCC(=O)NCCCN3CCN(c4ccc(F)cc4)CC3)n2)cc1,active: 7.31 µM
21,O=C(NCCCn1ccnc1)C1CCN(S(=O)(=O)c2cc([N+](=O)[O-])ccc2Cl)CC1,inactive
22,CCN(C[C@H]1N[C@@](C)(C(=O)OC)[C@H]2C(=O)N(C)C(=O)[C@@H]12)S(=O)(=O)c1ccc(OC(F)(F)F)cc1,inactive
23,COc1ccc(S(=O)(=O)N2CCCC(C(=O)Nc3cccnc3)C2)cc1Cl (centres undefined),active: 14.6 µM
24,COC(=O)c1c(NC(=O)c2cnccn2)sc2c1CCC2,"inconclusive [inhibitor, single point]"
25,COc1ccc(NC(=O)Nc2c[nH]c(=O)[nH]c2=O)c(OC)c1,inactive
26,Cc1ccc(S(=O)(=O)NC(C)(C)CSc2nnc(Nc3ccccc3)s2)cc1,"inconclusive [inhibitor, single point]"
27,CC1=Nn2c(nnc2-c2ccccc2Cl)SC1,inactive

row,Compound,Potency
1,CCc1ccc(NC(=O)C2=CC(c3ccc4c(c3)OCO4)=NS(=O)(=O)N2C)cc1,"inconclusive [inhibitor, single point]"
2,O=[N+]([O-])c1ccccc1S(=O)(=O)N1CCN(c2nc(-c3cccs3)nc3ccccc23)CC1,"inconclusive [inhibitor, single point]"
3,Cc1cc(NC(=O)COC(=O)c2ccc(S(=O)(=O)N3CCCc4ccccc43)cc2)no1,active: 3.26 µM
4,Cc1cccc(Cc2nnc(NC(=O)c3cccc(S(=O)(=O)N4CCOCC4)c3)s2)c1,inactive
5,C#CCN1C(=O)C2(OCCO2)c2ccccc21,inactive
6,COc1ccccc1CNC(=O)CSc1ncc2c(n1)-c1cc(Cl)ccc1N(Cc1ccccc1)S2(=O)=O,"inconclusive [inhibitor, single point]"
7,Cc1ccc(C(C)NC(=O)Cc2cccs2)c(C)c1 (centres undefined),inactive
8,NC(=O)c1ccc[n+](CC(=O)c2ccc(Br)cc2)c1,"inconclusive [inhibitor, partial curve]"
9,CCOc1ccc(-c2nc(SCC(=O)NCCCOC)c(-c3ccccc3)[nH]2)cc1,"inconclusive [inhibitor, single point]"
10,Cc1nnc(NC(=O)CCCN2C(=O)c3ccccc3C2=O)s1,inactive
11,c1cc2c(cc1C1CCCCC1)c1c3n2CCN=C3CCC1,"inconclusive [inhibitor, single point]"
12,O=C(CSc1nnc(NC(=O)C2CC2)s1)Nc1ccc(F)cc1,"inconclusive [inhibitor, partial curve]"
13,COc1cc(NC(=O)Nc2cccc(C(C)=O)c2)cc(OC)c1OC,inactive
14,O=C(O)CCCC(=O)N1CCN(c2cccc(Cl)c2)CC1,inactive
15,O=C1CCC(=O)N1CCOP1(=O)COc2ccccc2OC1,inactive
16,CC(C)NCC(=O)Nc1c2c(nc3ccccc13)CCC2,inactive
17,CC(C)Cc1nnc(NC(=O)CN2C(=O)NC3(CC(C)CC(C)(C)C3)C2=O)s1 (centres undefined),"inconclusive [inhibitor, single point]"
18,CC1(C(=O)Nc2cccc(Oc3ccccc3)c2)CCN1Cc1ccccc1Cl (centres undefined),"inconclusive [inhibitor, single point]"
19,COc1ccc(-c2sc3ccccc3c2/C=C/c2ccncc2)cc1,active: 16.4 µM
20,CCOc1cc(NC(=O)c2ccco2)c(OCC)cc1NC(=O)COc1ccccc1,active: 4.61 µM
21,O=C(NCc1cccnc1)C1Cc2c(-c3ccc(Cl)cc3)ccnc2O1 (centres undefined),active: 8.2 µM
22,O=[N+]([O-])c1cccc(-c2nnc(-c3ccccc3)o2)c1,inactive
23,CCC(=O)N1CCN(c2ccc(Cl)cc2NC(=O)Cc2ccc(Cl)cc2)CC1,"inconclusive [inhibitor, single point]"
24,COC(=O)[C@@H]1C[C@@]2(O)[C@@H](O)[C@@H](O)[C@@H](O)C[C@H]2N1Cc1cc(OC)cc(OC)c1,inactive
25,Cc1cc(C)c(C(=O)C(C)OC(=O)c2ccc(Cl)nc2)cc1C (centres undefined),"inconclusive [inhibitor, single point]"
26,CC(C)C[C@H]1CN(CCCC[C@@H]2CNC(=O)C(=O)N2Cc2ccccc2)C(=O)C(=O)N1CCC1CCCCC1,inactive
27,CC(C)(C)c1cc(NC(=O)c2cccnc2)no1,inactive

row,Compound,Potency
1,CCN(CC(=O)Nc1ccc(NC(C)=O)cc1)C(=O)c1cc(-c2ccccc2Cl)nc2ccccc12,active: 14.6 µM
2,CCOC(=O)CC(=O)CSc1ncnc2c1nnn2-c1ccccc1,inactive
3,Nc1nc(SCc2cccnc2)c2ncn(C3OC(CO)C(O)C3O)c2n1 (centres undefined),inactive
4,Brc1cnc2ccccc2c1N1CCCCC1,"inconclusive [inhibitor, partial curve, poor fit]"
5,NC(=O)C(C(=O)/C=C/c1ccc(Cl)cc1)=C1SCCS1,active: 8.2 µM
6,COc1ccccc1NS(=O)(=O)c1cc(NC(=O)C2CCCC2)ccc1N1CCOCC1,"inconclusive [inhibitor, single point]"
7,COc1ccccc1-c1c(C)nn2c(N3CCN(c4ccccc4OC)CC3)cc(C)nc12,"inconclusive [inhibitor, single point]"
8,N#CC1=C(SCc2ccccc2)NC(=O)CC1c1cccc(O)c1 (centres undefined),inactive
9,O=C(Cc1ccc(S(=O)(=O)N2CCOCC2)s1)Nc1ccc(Br)c(C(F)(F)F)c1,active: 25.9 µM
10,O=C(c1cc2cc(Br)ccc2s1)N1CCOCC1,inactive
11,CC(C)(C)Cc1c(-c2cccc(Cl)c2)nc2ccc(Br)cn12,"inconclusive [inhibitor, single point]"
12,O=C(O)c1ccc(NS(=O)(=O)c2ccc(Cl)c(C(=O)Nc3ccccc3[N+](=O)[O-])c2)cc1,inactive
13,CCNc1nc(NC(C)(C)C)nc(N2CCCC2)n1,"inconclusive [inhibitor, single point]"
14,CCN(CC)c1ccc(-c2n[nH]c(=S)n2-c2ccccc2)cc1,active: 23.1 µM
15,O=C(Cc1ccccc1F)N1CCC(c2nc3c(nnn3Cc3ccc(F)cc3)c(=O)[nH]2)CC1,"inconclusive [inhibitor, single point]"
16,CCC(=O)OC1(C)C(=O)C=C2C=C(c3ccc(C#N)cc3)OC=C2C1=O (centres undefined),inactive
17,CN(/N=C/Cc1nnnn1-c1ccc(Cl)cc1)c1ccccc1,"inconclusive [inhibitor, single point]"
18,Cc1oc2c(c1C(=O)c1ccccc1)C(=O)C(=O)c1ccccc1-2,active: 1.84 µM
19,CC1(C)Cc2c(cnn2-c2cccc(F)c2)C(NC(=O)CN2CCCC2=O)C1 (centres undefined),"inconclusive [inhibitor, full curve, poor fit]"
20,CN[C@H](CC(=O)O)C(=O)O,inactive
21,COc1cccc(OCc2cc(C(=O)N(C)CCOc3ccc(C)cc3)no2)c1,inactive
22,Cn1ncc(N=Cc2ccc([N+](=O)[O-])cc2)c1C(=O)Nc1ccccc1,inactive
23,O=C(c1ccccc1)C1C(=O)c2ccccc2C1=O,"inconclusive [inhibitor, partial curve, poor fit]"
24,O=C(NCc1ccc(Cl)cc1Cl)c1cccc(N2CCCS2(=O)=O)c1,"inconclusive [inhibitor, single point]"
25,COc1[nH]c(/N=C/c2ccccc2)c(C#N)c1C#N,"inconclusive [inhibitor, single point]"
